# Values joined by “and” are separate entries in the source; they are usually repeats but may differ in a detail not shown here. Equal entries are not always repeated. Further values from the same series stand in other lists.
# Experiment: Tissue distribution and elimination of total radioactivity (total residues) after oral ^3H-ADP for 7 d
# Type: in vivo, swine
# Procedure: (0.1 Ci/g) through oral gavage for 7 consecutive days. All the animals were housed on the basis of their group in the cages or aquaria throughout the whole study period. A group of animals was slaughtered through exsanguination under diethyl ether inhalation of anesthesia in the period of 6 h, 1, 3, 7, 14, and 21 d after the administration. The blood samples were immediately collected into the heparinized tubes and was centrifuged at 1920 × g at 4 °C for 10 min to obtain the plasma. The tissues from the heart, liver, spleen, lung, kidney, craw (broilers), stomach, intestine, fat, skin, muscle, thymus, pancreas, bile, bladder, hair (scale for carp), genital gland, adrenal glands, swim bladder (carp), brain, lymph, and bursa (broilers) were carefully excised and collected. The tissues were thoroughly rinsed with the deionized water to remove the residuary blood, blotted to dryness, and finally to perform the homogenization. In order to avoid cross-contamination the dissecting instruments were washed during the tissue procurements. The blank tissues were collected in order to provide control matrices. The total radioactivity levels in each sample were determined through LSC. The samples extracted from the plasma, bile, and tissues of the liver, kidney, muscle, and fat/skin were analyzed through LC/MS-IT-TOF and v. ARC radiometric detection for metabolite profiling.
# Measurements of the total radioactivity in each sample were conducted by Packard Tri-Carb 2900 TR liquid scintillation counter (PerkinElmer Life and Analytical Sciences). The detection time was 10 min for two cycles. The scintillation counter data were automatically corrected for counting efficiency by instrument-stored quench curve which was drawn with a series of sealed quenched […] standards. The actual radioactivity of each sample was calculated by subtracting the background value form the mean radioactivity in two blank samples. All the samples were analyzed in duplicate if the sample size allowed this. If the results were differed by more than 10% from the mean value, the samples were reanalyzed. The samples with LSC counts less than 2-fold of the level of the running background were considered to contain insufficient radioactivity for reliable quantification.
# Aliquots of liquid samples (urine, plasma, bile and raised water, 200 μL) were mixed with 10 mL of Ultima Gold^TM scintillation fluid for the direct analysis by LSC. Aliquots of solid samples (feces and tissues, 200 mg) were digested overnight with 2 mL tissue solubilizer at 50 °C in a shaking water bath, followed by adding 200 μL of 0.1 mol/L EDTA-Na and 200 μL of 30% H2O2, and was bathed at 50 °C for 2 h to bleach. The obtained transparent liquid were mixed with 10 mL of scintillation fluid and finally were counted by LSC. The digestion efficiency was determined by using the blank samples spiked with ^3 H standard for digestion, and the measured radioactivity content in the digested samples were adjusted by using the digestion efficiency values.
# The concentrations of ADP and/or its metabolites were analyzed by using the following equation: C = L/(2.22 × 10^9 × RM), where C is the concentration of ADP or/and its metabolites (mg/kg), L is the LSC count (dpm), R is the specific activity of the administered dose (0.1 Ci/g), and M is the weight or volume of samples (kg or L). The results are expressed as mean ± SD. The elimination kinetics of terminal phase for ADP and its metabolites were conducted by using the WinNonlin linear regression program (Pharsight corporation, Statistical consultants, Inc., Kentucky, USA).
smiles,measurement,setting,value
[3H]c1c(Cc2cnc(N)nc2N)cc(OC)c(N(C)C)c1OC [^3H-ADP],Concentrations of total residues,"swine Adrenal, 0.25 d after 5 mg/kg b. w. for 7 days",48.60 ± 3.20 mg/kg
same,Concentrations of total residues,"swine Adrenal, 1 d after 5 mg/kg b. w. for 7 days",13.85 ± 7.65 mg/kg
same,Concentrations of total residues,"swine Adrenal, 3 d after 5 mg/kg b. w. for 7 days",1.33 ± 0.13 mg/kg
same,Concentrations of total residues,"swine Adrenal, 7 d after 5 mg/kg b. w. for 7 days",0.29 ± 0.05 mg/kg
same,Concentrations of total residues,"swine Adrenal, 14 d after 5 mg/kg b. w. for 7 days",0.06 ± 0.00 mg/kg
same,Concentrations of total residues,"swine Bile, 0.25 d after 5 mg/kg b. w. for 7 days",66.0 ± 30.1 mg/kg and 66.00 ± 30.11 mg/kg
same,Concentrations of total residues,"swine Bile, 1 d after 5 mg/kg b. w. for 7 days",19.60 ± 10.41 mg/kg
same,Concentrations of total residues,"swine Bile, 3 d after 5 mg/kg b. w. for 7 days",1.60 ± 0.10 mg/kg
same,Concentrations of total residues,"swine Bile, 7 d after 5 mg/kg b. w. for 7 days",0.22 ± 0.01 mg/kg
same,Concentrations of total residues,"swine Bladder, 0.25 d after 5 mg/kg b. w. for 7 days",5.38 ± 0.54 mg/kg
same,Concentrations of total residues,"swine Bladder, 1 d after 5 mg/kg b. w. for 7 days",2.31 ± 1.39 mg/kg
same,Concentrations of total residues,"swine Bladder, 3 d after 5 mg/kg b. w. for 7 days",0.60 ± 0.18 mg/kg
same,Concentrations of total residues,"swine Bladder, 7 d after 5 mg/kg b. w. for 7 days",0.11 ± 0.03 mg/kg
same,Concentrations of total residues,"swine Blood, 0.25 d after 5 mg/kg b. w. for 7 days",2.21 ± 0.21 mg/kg
same,Concentrations of total residues,"swine Blood, 1 d after 5 mg/kg b. w. for 7 days",1.57 ± 0.28 mg/kg
same,Concentrations of total residues,"swine Blood, 3 d after 5 mg/kg b. w. for 7 days",0.62 ± 0.02 mg/kg
same,Concentrations of total residues,"swine Blood, 7 d after 5 mg/kg b. w. for 7 days",0.09 ± 0.02 mg/kg
same,Concentrations of total residues,"swine Clothing hair, 0.25 d after 5 mg/kg b. w. for 7 days",0.33 ± 0.16 mg/kg
same,Concentrations of total residues,"swine Clothing hair, 1 d after 5 mg/kg b. w. for 7 days",0.32 ± 0.14 mg/kg
same,Concentrations of total residues,"swine Clothing hair, 3 d after 5 mg/kg b. w. for 7 days",0.30 ± 0.11 mg/kg
same,Concentrations of total residues,"swine Clothing hair, 7 d after 5 mg/kg b. w. for 7 days",0.13 ± 0.01 mg/kg
same,Concentrations of total residues,"swine Clothing hair, 14 d after 5 mg/kg b. w. for 7 days",0.05 ± 0.01 mg/kg
same,Concentrations of total residues,"swine Fat, 0.25 d after 5 mg/kg b. w. for 7 days",1.63 ± 0.38 mg/kg
same,Concentrations of total residues,"swine Fat, 1 d after 5 mg/kg b. w. for 7 days",0.57 ± 0.11 mg/kg
same,Concentrations of total residues,"swine Fat, 3 d after 5 mg/kg b. w. for 7 days",0.35 ± 0.04 mg/kg
same,Concentrations of total residues,"swine Fat, 7 d after 5 mg/kg b. w. for 7 days",0.17 ± 0.05 mg/kg
same,Concentrations of total residues,"swine Heart, 0.25 d after 5 mg/kg b. w. for 7 days",3.53 ± 0.16 mg/kg
same,Concentrations of total residues,"swine Heart, 1 d after 5 mg/kg b. w. for 7 days",1.51 ± 0.63 mg/kg
same,Concentrations of total residues,"swine Heart, 3 d after 5 mg/kg b. w. for 7 days",0.48 ± 0.04 mg/kg
same,Concentrations of total residues,"swine Heart, 7 d after 5 mg/kg b. w. for 7 days",0.15 ± 0.04 mg/kg
same,Concentrations of total residues,"swine Heart, 14 d after 5 mg/kg b. w. for 7 days",0.02 ± 0.00 mg/kg
same,Concentrations of total residues,"swine Kidney, 0.25 d after 5 mg/kg b. w. for 7 days",46.83 ± 5.24 mg/kg
same,Concentrations of total residues,"swine Kidney, 1 d after 5 mg/kg b. w. for 7 days",10.93 ± 5.42 mg/kg
same,Concentrations of total residues,"swine Kidney, 3 d after 5 mg/kg b. w. for 7 days",1.26 ± 0.10 mg/kg
same,Concentrations of total residues,"swine Kidney, 7 d after 5 mg/kg b. w. for 7 days",0.38 ± 0.01 mg/kg
same,Concentrations of total residues,"swine Kidney, 14 d after 5 mg/kg b. w. for 7 days",0.12 ± 0.01 mg/kg
same,Concentrations of total residues,"swine Large Intestine, 0.25 d after 5 mg/kg b. w. for 7 days",6.40 ± 1.26 mg/kg
same,Concentrations of total residues,"swine Large Intestine, 1 d after 5 mg/kg b. w. for 7 days",2.16 ± 1.15 mg/kg
same,Concentrations of total residues,"swine Large Intestine, 3 d after 5 mg/kg b. w. for 7 days",0.28 ± 0.03 mg/kg
same,Concentrations of total residues,"swine Large Intestine, 7 d after 5 mg/kg b. w. for 7 days",0.10 ± 0.03 mg/kg
same,Concentrations of total residues,"swine Liver, 0.25 d after 5 mg/kg b. w. for 7 days",21.65 ± 2.75 mg/kg
same,Concentrations of total residues,"swine Liver, 3 d after 5 mg/kg b. w. for 7 days",2.37 ± 0.17 mg/kg
same,Concentrations of total residues,"swine Liver, 7 d after 5 mg/kg b. w. for 7 days",0.86 ± 0.15 mg/kg
same,Concentrations of total residues,"swine Liver, 14 d after 5 mg/kg b. w. for 7 days",0.37 ± 0.03 mg/kg
same,Concentrations of total residues,"swine Lung, 0.25 d after 5 mg/kg b. w. for 7 days",36.92 ± 3.38 mg/kg
same,Concentrations of total residues,"swine Lung, 1 d after 5 mg/kg b. w. for 7 days",9.63 ± 4.57 mg/kg
same,Concentrations of total residues,"swine Lung, 3 d after 5 mg/kg b. w. for 7 days",0.89 ± 0.03 mg/kg
same,Concentrations of total residues,"swine Lung, 7 d after 5 mg/kg b. w. for 7 days",0.23 ± 0.05 mg/kg
same,Concentrations of total residues,"swine Lung, 14 d after 5 mg/kg b. w. for 7 days",0.04 ± 0.00 mg/kg
same,Concentrations of total residues,"swine Lymph, 0.25 d after 5 mg/kg b. w. for 7 days",16.96 ± 0.33 mg/kg
same,Concentrations of total residues,"swine Lymph, 1 d after 5 mg/kg b. w. for 7 days",4.74 ± 2.60 mg/kg
same,Concentrations of total residues,"swine Lymph, 3 d after 5 mg/kg b. w. for 7 days",0.84 ± 0.10 mg/kg
same,Concentrations of total residues,"swine Lymph, 7 d after 5 mg/kg b. w. for 7 days",0.25 ± 0.04 mg/kg
same,Concentrations of total residues,"swine Muscle, 0.25 d after 5 mg/kg b. w. for 7 days",2.69 ± 0.27 mg/kg
same,Concentrations of total residues,"swine Muscle, 1 d after 5 mg/kg b. w. for 7 days",1.10 ± 0.47 mg/kg
same,Concentrations of total residues,"swine Muscle, 3 d after 5 mg/kg b. w. for 7 days",0.43 ± 0.01 mg/kg
same,Concentrations of total residues,"swine Muscle, 7 d after 5 mg/kg b. w. for 7 days",0.09 ± 0.02 mg/kg
same,Concentrations of total residues,"swine Pancreas, 0.25 d after 5 mg/kg b. w. for 7 days",16.20 ± 2.32 mg/kg
same,Concentrations of total residues,"swine Pancreas, 1 d after 5 mg/kg b. w. for 7 days",5.06 ± 2.61 mg/kg
same,Concentrations of total residues,"swine Pancreas, 3 d after 5 mg/kg b. w. for 7 days",0.74 ± 0.05 mg/kg
same,Concentrations of total residues,"swine Pancreas, 7 d after 5 mg/kg b. w. for 7 days",0.24 ± 0.07 mg/kg
same,Concentrations of total residues,"swine Pancreas, 14 d after 5 mg/kg b. w. for 7 days",0.04 ± 0.00 mg/kg
same,Concentrations of total residues,"swine Skin, 0.25 d after 5 mg/kg b. w. for 7 days",3.77 ± 0.75 mg/kg
same,Concentrations of total residues,"swine Skin, 1 d after 5 mg/kg b. w. for 7 days",1.89 ± 0.46 mg/kg
same,Concentrations of total residues,"swine Skin, 3 d after 5 mg/kg b. w. for 7 days",0.63 ± 0.39 mg/kg
same,Concentrations of total residues,"swine Skin, 7 d after 5 mg/kg b. w. for 7 days",0.44 ± 0.10 mg/kg
same,Concentrations of total residues,"swine Skin, 14 d after 5 mg/kg b. w. for 7 days",0.04 ± 0.01 mg/kg
same,Concentrations of total residues,"swine Small Intestine, 0.25 d after 5 mg/kg b. w. for 7 days",4.53 ± 1.40 mg/kg
same,Concentrations of total residues,"swine Small Intestine, 1 d after 5 mg/kg b. w. for 7 days",1.94 ± 0.63 mg/kg
same,Concentrations of total residues,"swine Small Intestine, 3 d after 5 mg/kg b. w. for 7 days",0.26 ± 0.02 mg/kg
same,Concentrations of total residues,"swine Small Intestine, 7 d after 5 mg/kg b. w. for 7 days",0.06 ± 0.03 mg/kg
same,Concentrations of total residues,"swine Spleen, 0.25 d after 5 mg/kg b. w. for 7 days",25.40 ± 2.91 mg/kg
same,Concentrations of total residues,"swine Spleen, 3 d after 5 mg/kg b. w. for 7 days",0.91 ± 0.09 mg/kg
same,Concentrations of total residues,"swine Spleen, 7 d after 5 mg/kg b. w. for 7 days",0.31 ± 0.01 mg/kg
same,Concentrations of total residues,"swine Spleen, 14 d after 5 mg/kg b. w. for 7 days",0.09 ± 0.01 mg/kg
same,Concentrations of total residues,"swine Stomach, 0.25 d after 5 mg/kg b. w. for 7 days",15.32 ± 5.59 mg/kg
same,Concentrations of total residues,"swine Stomach, 1 d after 5 mg/kg b. w. for 7 days",4.00 ± 2.18 mg/kg
same,Concentrations of total residues,"swine Stomach, 3 d after 5 mg/kg b. w. for 7 days",0.68 ± 0.16 mg/kg
same,Concentrations of total residues,"swine Stomach, 7 d after 5 mg/kg b. w. for 7 days",0.15 ± 0.03 mg/kg
same,Concentrations of total residues,"swine Thymus, 0.25 d after 5 mg/kg b. w. for 7 days",11.65 ± 0.31 mg/kg
same,Concentrations of total residues,"swine Thymus, 1 d after 5 mg/kg b. w. for 7 days",3.02 ± 1.54 mg/kg
same,Concentrations of total residues,"swine Thymus, 3 d after 5 mg/kg b. w. for 7 days",0.73 ± 0.20 mg/kg
same,Concentrations of total residues,"swine Thymus, 7 d after 5 mg/kg b. w. for 7 days",0.29 ± 0.06 mg/kg

# From paper PMC4738305, “Metabolism and Disposition of Aditoprim in Swine, Broilers, Carp and Rats” (Scientific Reports, 2016)
